The other results are listed elsewhere or left out.
biological target: no compound (DMSO); test: log2 fold change of degron read counts, EGFP-low vs EGFP+ sorted cells; higher = lower degron-EGFP level without compound (poor expression or instability); conditions: compound: DMSO control; 18 h
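Also: jurkat cells carrying a lentiviral library of mutant zinc finger degrons fused to EGFP plus mCherry, mCherry+ cells FACS sorted, degron abundance counted by next-generation sequencing.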

Sequence | log2 fold change of degron read counts
FHCPICGRCFTQKGNLLRHIKL | -0.859
FRCPICGRKFTQKGNLLRHIKL | -0.738
FLCNICGAKFTQKGNLLRHIKL | -1.07
FFCPICGRSFTQKGNLLRHIKL | -1.21
FGCEICGAVFTQKGNLLRHIKL | -0.662
FMCEVCGANFTQKGNLLRHIKL | -1.97
FCCDVCGAGFTQKGNLLRHIKL | -2.28
LSCNQCGFHCTQKGNLLRHIKL | 0.547
FTCNQCGAPFTQKGNLLRHIKL | -0.786
FGCDVCGAVFTQKGNLLRHIKL | -0.897
FLCNQCGHQFTQKGNLLRHIKL | -0.56
FSCDVCGAMFTQKGNLLRHIKL | -0.585
LNCEICGFGCTQKGNLLRHIKL | 0.277
FCCDICGANFTQKGNLLRHIKL | -0.925
FFCPQCGAWFTQKGNLLRHIKL | 1.29
FSCEICGRQFTQKGNLLRHIKL | -1.24
FNCNQCGREFTQKGNLLRHIKL | -1.34
FHCPICGRHFTQKGNLLRHIKL | -0.897
FQCNICGANFTQKGNLLRHIKL | -0.546
FNCPVCGAMFTQKGNLLRHIKL | -0.324
FFCNQCGHKFTQKGNLLRHIKL | 0.191
FRCPICGHHFTQKGNLLRHIKL | -0.0734
LLCPICGFRCTQKGNLLRHIKL | 0.477
FLCPICGHRFTQKGNLLRHIKL | -0.567
FNCPICGHDFTQKGNLLRHIKL | -0.81

Sequence | log2 fold change of degron read counts
FLCNQCGRPFTQKGNLLRHIKL | -0.0967
FLCDVCGAYFTQKGNLLRHIKL | -0.886
FCCEICGRNFTQKGNLLRHIKL | -0.608
LHCEICGFVCTQKGNLLRHIKL | -0.0575
FCCPICGRHFTQKGNLLRHIKL | 0.101
FACEVCGANFTQKGNLLRHIKL | -1.68
FRCPICGAYFTQKGNLLRHIKL | 1.08
FSCPICGASFTQKGNLLRHIKL | 0.0799
FFCEICGHNFTQKGNLLRHIKL | -1.21
FQCPICGHGFTQKGNLLRHIKL | -0.263
FDCNQCGASFTQKGNLLRHIKL | -0.791
FWCNVCGAHFTQKGNLLRHIKL | 0.564
FQCPICGHYFTQKGNLLRHIKL | 0.12
LKCEICGFHCTQKGNLLRHIKL | 0.449
FWCEICGRLFTQKGNLLRHIKL | 1.05
FCCNICGASFTQKGNLLRHIKL | -0.633
FLCPICGRRFTQKGNLLRHIKL | -0.741
FLCDVCGAHFTQKGNLLRHIKL | -0.971
FGCDVCGAWFTQKGNLLRHIKL | 0.0278
FMCDQCGANFTQKGNLLRHIKL | -2.63
FNCSVCGHNFTQKGNLLRHIKL | -0.405
FLCEQCGAAFTQKGNLLRHIKL | -1.24
FVCNQCGAVFTQKGNLLRHIKL | -0.348
FMCPICGRCFTQKGNLLRHIKL | 0.292
FLCPICGRKFTQKGNLLRHIKL | -0.589

Source: the supplement of paper PMC12645437, “Orthogonal IMiD-Degron Pairs Induce Selective Protein Degradation in Cells” (ACS Chemical Biology, 2025)
